Measured values reported in patent publication EP0600950B1, “AMIDE TETRAZOLE ACAT INHIBITORS” (priority 1991, dated 1993).
At least one read-out could not be matched to a standard name with certainty.

System: male Sprague-Dawley rats
Test: in vivo screen APCC, cholesterol-fed rats, blood cholesterol
Conditions: high fat, blood cholesterol vs vehicle
From the text: In one in vivo screen designated APCC, male Sprague-Dawley rats (200 to 225 g) were randomly divided into treatment groups and dosed at 4 PM with either vehicle (CMC/Tween) or suspensions of compounds in vehicle. The normal chow diet was then replaced with a high fat, high cholesterol diet with 0.5% cholic acid. The rats consumed this diet ad libitum during the night and were sacrificed at 8 AM to obtain blood samples for cholesterol analysis using standard procedures. Statistical differences between mean cholesterol values for the same vehicle were determined using analysis of variance followed by Fisher's least significant test.

[1] = Table 2, dosed at 30 mg/kg unless otherwise noted, high cholesterol diet with 0.5% cholic acid overnight
[2] = Table 3 (side chain on tetrazole nitrogen), dosed at 30 mg/kg unless otherwise noted, high cholesterol diet overnight
[3] = Table 2, dosed at 30 mg/kg unless otherwise noted, high cholesterol diet with 0.5% cholic acid overnight, 30 mg/kg

Row | SMILES | APCC (% ΔTC) [1] | APCC (% ΔTC) [2] | further results
1 | CCCCCCCCCCCCn1nnc(C(C(=O)Nc2c(OC)cc(OC)cc2OC)c2ccccc2)n1 (racemic) [Example 13, (±) 2-Dodecyl-α-phenyl-N-(2,4,6-trimethoxyphenyl)-2H-tetrazole-5-acetamide] | -63% |  | 
2 | CCCCCCCCCCCCn1nnc(C(C(=O)Nc2ccccc2)c2ccccc2)n1 (racemic) [Example 14, (±)-2-dodecyl-N,α-diphenyl-2H-tetrazole-5-acetamide] | -33% |  | 
3 | CCCCCCCCCCCCn1nnc(C(C(=O)Nc2c(C(C)C)cccc2C(C)C)c2ccccc2)n1 (racemic) [Example 15, (±)-N-[2,6-bis(1-methylethyl)phenyl]-2-dodecyl-α-phenyl-2H-tetrazole-5-acetamide] | -66% |  | 
4 | CCCCCCCCCCCCn1nnc(C(C(=O)Nc2c(OC)ncnc2OC)c2ccccc2)n1 (racemic) [Example 16, (±)-N-(4,6-dimethoxy-5-pyrimidinyl)-2-dodecyl-α-phenyl-2H-tetrazole-5-acetamide] | -56% |  | 
5 | CCCCCCCCCCCCn1nnc(C(C(=O)Nc2ccc3c(C)cc(C)nc3n2)c2ccccc2)n1 (racemic) [Example 17, (±)-N-(5,7-dimethyl-1,8-naphthyridine-2-yl)-2-dodecyl-α-phenyl-2H-tetrazole-5-acetamide] | -8% |  | 
6 | CCCCCCCCCCCCn1nnc(C(C(=O)Nc2cnc3c(C)cc(C)cc3c2-c2ccccc2Cl)c2ccccc2)n1 (racemic) [Example 18, (±)-N-[4-(2-chlorophenyl)-6,8-dimethyl-3-quinolinyl]-2-dodecyl-α-phenyl-2H-tetrazole-5-acetamide] | +15% |  | 
7 | CCCCCCCCCCCCn1nnc(C(C(=O)Nc2c(C)nn(C)c2C)c2ccccc2)n1 (racemic) [Example 19, (±)-2-dodecyl-α-phenyl-N-(1,3,5-trimethyl-1H-pyrazol-4-yl)-2H-tetrazole-5-acetamide] | -62% |  | 
8 | CCCCCCCCCCCCn1nnc(C(C(=O)NC2CC2)c2ccccc2)n1 (racemic) [Example 20, (±)-N-cyclopropyl-2-dodecyl-α-phenyl-2H-tetrazole-5-acetamide] | -62% |  | 
9 | CCCCCCCCCCCCn1nnc(C(C(=O)Nc2ccc(F)cc2F)c2ccccc2)n1 (racemic) [Example 21, (±)-N-(2,4-difluoro-phenyl)-2-dodecyl-α-phenyl-2H-tetrazole-5-acetamide] | -61% |  | 
10 | CCCCCCCCCCCCn1nnc(C(C(=O)Nc2ccccn2)c2ccccc2)n1 (racemic) [Example 22, (±)-2-dodecyl-α-phenyl-N-2-pyridinyl-2H-tetrazole-5-acetamide] | -22% |  | 
11 | CCCCCCCCCCCCn1nnc(C(C(=O)Nc2ncccc2C)c2ccccc2)n1 (racemic) [Example 23, (±)-2-dodecyl-N-(3-methyl-2-pyridinyl)-α-phenyl-2H-tetrazole-5-acetamide] | -52% |  | 
12 | CCCCCCCCCCCCn1nnc(C(C(=O)Nc2c(C)ccc[n+]2[O-])c2ccccc2)n1 (racemic) [Example 24, (±)-2-Dodecyl-N-(3-methyl-2-pyridinyl)-2-phenyl-2H-tetrazole-5-acetamide, N-oxide] | -56% |  | 
13 | CCCCCCCCCCCCn1nnnc1C(C(=O)Nc1ccc(F)cc1F)c1ccccc1 (racemic) [Example 25, (±)-N-(2,4-Difluorophenyl)-1-dodecyl-α-phenyl-1H-tetrazole-5-acetamide] | -61% |  | 
14 | CCCCCCCCCCCCn1nnnc1C(C(=O)Nc1c(C(C)C)cccc1C(C)C)c1ccccc1 (racemic) [Example 26, (±)-N-[2,6-Bis(1-methylethyl)phenyl]-1-dodecyl-α-phenyl-1H-tetrazole-5-acetamide] | -44% |  | 
15 | CCCCCCCCn1nnc(C(C(=O)Nc2c(OC)cc(OC)cc2OC)c2ccccc2)n1 (racemic) [Example 31, (±)-2-Octyl-α-phenyl-N-(2,4,6-trimethoxyphenyl)-2H-tetrazole-5-acetamide] | -39% |  | 
16 | CCCCCCCCCCCCCCCCn1nnc(C(C(=O)Nc2c(OC)cc(OC)cc2OC)c2ccccc2)n1 (racemic) [Example 32, (±) 2-Hexadecyl-α-phenyl-N-(2,4,6-trimethoxyphenyl)-2H-tetrazole-5-acetamide] | -47% |  | 
17 | CCCCCCCCCCCCn1nnc(C(C)(C(=O)Nc2c(OC)cc(OC)cc2OC)c2ccccc2)n1 (racemic) [Example 44, (±)-2-Dodecyl-α-methyl-α-phenyl-N-(2,4,6-trimethoxyphenyl)-2H-tetrazole-5-acetamide] | -66% |  | 
18 | CCCCCCCCCCCCn1nnc(C(C(=O)Nc2c(OC)cc(OC)cc2OC)c2ccc(N(C)C)cc2)n1 (racemic) [Example 51, (±)-α-[4-dimethylamino)phenyl]-2-dodecyl-N-(2,4,6-trimethoxy-phenyl)-2H-tetrazole-5-acetamide] | -62% |  | 

Row | SMILES | APCC (% ΔTC) [1] | APCC (% ΔTC) [2] | further results
19 | CCCCCCCCCCCCn1nnc(C(C(=O)Nc2c(OC)cc(OC)cc2OC)c2ccc3ccccc3c2)n1 (racemic) [Example 53, (±)-2-Dodecyl-α-2-naphthalenyl-N-(2,4,6-trimethoxyphenyl)-2H-tetrazole-5-acetamide] | -59% |  | 
20 | CCCCCCCCCCCCn1nnc(C(C(=O)Nc2c(OC)cc(OC)cc2OC)c2ccc(-c3ccccc3)cc2)n1 (racemic) [Example 54, (±)-α-([1,1'-biphenyl]-4-yl)-2-dodecyl-N-(2,4,6-trimethoxy-phenyl)-2H-tetrazole-5-acetamide] | -43% |  | 
21 | CCCCCCCCCCCCn1nnc(C(C(=O)Nc2c(C(C)C)cccc2C(C)C)c2ccccn2)n1 (racemic) [Example 55, (±)-N-[2,6-Bis(1-methylethyl)phenyl]-2-dodecyl-α-2-pyridinyl-2H-tetrazole-5-acetamide] | -64% |  | 
22 | CCCCCCCCCCCCn1nnc(C(C(=O)Nc2c(OC)cc(OC)cc2OC)C2CCCCC2)n1 (racemic) [Example 60, (±)-2-Dodecyl-α-(cyclohexyl)-N-(2,4,6-trimethoxy-phenyl)-2H-tetrazole-5-acetamide] | -63% |  | 
23 | CC(C)c1cccc(C(C)C)c1NC(=O)C(c1ccccc1)n1nnc(C(c2ccccc2)c2ccccc2)n1 (racemic) [Example 90, (±)-N-[2,6-bis(1-methylethyl)phenyl]-5-(diphenylmethyl)-α-phenyl-2H-tetrazole-2-acetamide] |  | +5% | 
24 | CCCCCCCCCCCCc1nnn(C(C(=O)Nc2c(C(C)C)cccc2C(C)C)c2ccccc2)n1 (racemic) [Example 92, (±)-N-[2,6-bis(1-methylethyl)phenyl]-5-dodecyl-α-phenyl-2H-tetrazole-2-acetamide] |  | -77% | 
25 | CCCCCCCCCCCCc1nnn(C(CCCCC)C(=O)Nc2c(C(C)C)cccc2C(C)C)n1 (racemic) [Example 93, (±)-N-[2,6-bis(1-methylethyl)phenyl]-5-dodecyl-α-pentyl-2H-tetrazole-2-acetamide] |  | -30% | 
26 | CCCCCCCCCCCCSc1nnn(C(C(=O)Nc2c(C(C)C)cccc2C(C)C)c2ccccc2)n1 (racemic) [Example 94, (±)-N-[2,6-bis(1-methylethyl)phenyl-5-(dodecylthio)-α-phenyl-2H-tetrazole-2-acetamide] |  | -26% | 
27 | CCCCCCCCCCc1nnn(C(C(=O)Nc2c(OC)cc(OC)cc2OC)c2ccccc2)n1 (racemic) [Example 95, (±)-5-decyl-α-phenyl-N-(2,4,6-trimethoxyphenyl-2H-tetrazole-2-acetamide] |  | -64% | 
28 | COc1cc(OC)c(NC(=O)C(c2ccccc2)n2nnc(C(c3ccccc3)c3ccccc3)n2)c(OC)c1 (racemic) [Example 96, (±)-5-(diphenylmethyl)-α-phenyl-N-(2,4,6-trimethoxyphenyl)-2H-tetrazole-2-acetamide] |  | -47% | 
29 | CCCCCCCCCCCCc1nnn(C(C(=O)Nc2c(OC)cc(OC)cc2OC)c2ccccc2)n1 (racemic) [Example 98, (±)-5-dodecyl-α-phenyl-N-(2,4,6-trimethoxyphenyl)-2H-tetrazole-2-acetamide] |  | -65% | 
30 | CCCCCCCCCCCCc1nnn(C(CCCCC)C(=O)Nc2c(OC)cc(OC)cc2OC)n1 (racemic) [Example 99, (±)-5-dodecyl-α-pentyl-N-(2,4,6-trimethoxyphenyl)-2H-tetrazole-2-acetamide] |  | -51% | 
31 | CCCCCCCCCCCCc1nnn(C(C(=O)Nc2ccc(F)cc2F)c2ccccc2)n1 (racemic) [Example 100, (±)-N-(2,4-difluorophenyl-5-dodecyl-α-phenyl-2H-tetrazole-2-acetamide] |  | -63% | 
32 | CCCCCCCCCCCCSc1nnn(C(C(=O)Nc2c(OC)cc(OC)cc2OC)c2ccccc2)n1 (racemic) [Example 103, (±)-5-(dodecylthio)-α-phenyl-N-(2,4,6-trimethoxyphenyl)-2H-tetrazole-2-acetamide] |  | -60% | 
33 | CCCCCCCCCCCC[S+]([O-])c1nnn(C(C(=O)Nc2c(OC)cc(OC)cc2OC)c2ccccc2)n1 (racemic) [Example 104, (±)-5-(dodecylsulfinyl)-α-phenyl-N-(2,4,6)-trimethoxyphenyl)-2H-tetrazole-2-acetamide] |  | -50% | 
34 | CCCCCCCCCCCCn1nnc(C(C(=O)Nc2c(OC)cc(OC)cc2OC)c2ccccc2)n1 (single isomer, unassigned; (+)) [Example 62, (+)-2-Dodecyl-α-phenyl-N-(2,4,6-trimethoxy-phenyl)-2H-tetrazole-5-acetamide] |  |  | APCC (% ΔTC) [3]: -68%
35 | CCCCCCCCCCCCn1nnc(C(C(=O)Nc2c(OC)cc(OC)cc2OC)c2ccccc2)n1 (single isomer, unassigned; (-)) [Example 61, (-)-2-Dodecyl-α-phenyl-N-(2,4,6-trimethoxy-phenyl)-2H-tetrazole-5-acetamide] |  |  | APCC (% ΔTC) [3]: -64%
